Data published in patent publication US9457029B2, “Treatment of genotyped diabetic patients with DPP-IV inhibitors such as linagliptin” (Boehringer Ingelheim International GmbH, priority 2009, dated 2016).

Experiments:
[1] = tested on: patients with type 2 diabetes mellitus; assay: 24-week placebo-controlled study of linagliptin monotherapy
[2] = tested on: Japanese patients with type 2 diabetes mellitus; assay: 12-week placebo-controlled study of linagliptin monotherapy in Japanese patients; type: in vivo, human
Description: Of those; 9.4%, 8.8% and 10.0%, respectively, are assessed as being drug-related. […] Body weight is unchanged with both LI 5 mg and 10 mg, −0.39 and −0.06 kg, respectively, which is not sigificantly different vs. PBO (−0.04 kg).

[3] = tested on: inadequately controlled, metformin-treated type 2 diabetic patients; assay: 12-week randomized, double-blind study of BI 1356 add-on to metformin vs placebo or open label glimepiride; type: in vivo, human
Description: Efficacy and safety of BI 1356 (1, 5, or 10 mg qd), a potent and selective dipeptidyl peptidase-4 (DPP-4) inhibitor, was examined in inadequately controlled, metformin-treated (MET, ≧1 g daily) type 2 diabetic patients (T2DM; HbA1c at baseline 7.5-10.0%). Effects were compared to add-on of placebo (PBO) or of open label glimepiride (GLIM; 1 to 3 mg qd) in a 12-week randomized, double-blind study. Antidiabetic medication other than metformin was washed out for 6 weeks (34.7% of the patients).
The primary endpoint was change from baseline in HbA1c, adjusted for prior antidiabetic medication. 333 patients (mean baseline HbA1c 8.3%; fasting plasma glucose [FPG] 185 mg/dL) were randomized to BI 1356, PBO or open-label GLIM. […] Reductions in FPG from baseline to Week 12 with BI 1356 were statistically significant (1 mg, −19 mg/dL; 5 mg, −35 mg/dL; 10 mg, −30 mg/dL). […] For this dose, >80% DPP-4 inhibition at trough in >80% of the patients at week 12 was achieved.
In total, 106 patients (43.1%) experienced adverse events (AEs) with similar incidences across all treatments. Most frequently reported episodes were nasopharyngitis (7.5%), diarrhoea (3.3%), and nausea (3.0%). […] Ten patients (3.7%) experienced serious AEs but none of these events were considered drug-related.

[4] = tested on: type 2 diabetes patients of TCF7L2 rs7903146 CC, CT or TT genotype; assay: Association study of TCF7L2 SNP rs7903146 genotype and HbA1c response, pooled data over four studies (ANCOVA); type: in vivo, human; conditions: all investigated TCF7L2 genotype patients
Source text: To assess the homogeneity of the treatment effect on the change from baseline of HbA1c after 24 weeks in the genotype subgroups defined by TCF7L2 SNP […] genotypes an analysis of covariance (ANCOVA) model including the treatment interaction with the covariate genotype is applied for pooled data over four studies. The statistical model includes 'Treatment', 'Genotype', 'Study', 'Wash-Out-Period for prior oral antidiabetic drugs (yes/no)', 'Race', as well as the interaction term 'Treatment*Genotype' as fixed effects and 'HbA1c baseline' as a linear covariate. […] Model based pair-wise comparisons between wild-type homozygous (genotype CC) and heterozygous (genotype CT) or rare homozygous (genotype TT) individuals on linagliptin or combination treatment (linagliptin+pioglitazone, linagliptin+metformin, linagliptin+metformin+a sulphonylurea) are performed. […] Results are shown as point estimates and 95% confidence intervals for the mean change in HbA1c from baseline [%] after 24 weeks as estimated by ANCOVA models. The results are given for the whole patient population of the studies (full analysis set, FAS), for the subpopulation for which genetic analyses are performed (full analysis set for pharmacogenetic analyses, FASG), as well as for the subgroups defined by genotype (CC, CT, TT) of this subpopulation. […]

## CC#CCn1c(N2CCC[C@@H](N)C2)nc2c1c(=O)n(Cc1nc(C)c3ccccc3n1)c(=O)n2C [linagliptin, 1-[(4-methyl-quinazolin-2-yl)methyl]-3-methyl-7-(2-butyn-1-yl)-8-(3-(R)-amino-piperidin-1-yl)-xanthine]
[1]; 5 mg qd monotherapy
  change in HOMA-% B index: 5.02 (mU/L)/(mmol/L)
  change in disposition index: 3.05
[1]; 5 mg qd monotherapy, 6 weeks
  PBO-adjusted change in HbA1c from baseline: −0.46%
[1]; 5 mg qd monotherapy, 24 weeks
  FPG change vs. PBO: -23.3 mg/dL
  PBO-adjusted change in HbA1c from baseline: −0.69%
  changes in body weight or waist circumference: no clinically significant changes
  hypoglycemia, number of patients: 1 patients
  likelihood to achieve a reduction in HbA1c of ≧0.5% relative to PBO: > 4 fold
  patients achieving a reduction in HbA1c of ≧0.5%: 47.1%
  proportion of patients reporting at least one adverse event (AE): 52.4%
  serious AEs: 3.0%
[1]; 5 mg qd, meal tolerance test, week 24
  2-hr postprandial glucose (PPG), adjusted mean change from baseline vs. PBO: -58.4 mg/dL
[1]; 5 mg qd, patients with baseline HbA1c ≧7.0%, 24 weeks
  patients achieving a target reduction of HbA1c to <7.0%: 25.2%
[1]; 5 mg qd, patients with baseline HbA1c ≧9.0%
  reduction in HbA1c from baseline: −0.86%
[2]; LI 5 mg and 10 mg, 12 weeks
  investigator-defined hypoglycemic episodes: no investigator-defined hypoglycemic episodes
[2]; LI 5 mg qd, week 12
  difference of adjusted mean change from baseline in HbA1c vs. PBO: −0.87%
[2]; LI 5 mg, 12 weeks
  AEs assessed as being drug-related: 9.4%
  body weight change: -0.39 kg
[2]; LI 10 mg, 12 weeks
  AEs assessed as being drug-related: 8.8%
  proportion of patients experiencing at least one adverse event (AE): 53.1%
[3]; BI 1356 10 mg qd add-on to metformin
  reduction in FPG from baseline to Week 12: -30 mg/dL
[3]; BI 1356 1, 5 or 10 mg qd add-on to metformin, 12 weeks
  drug-related hypoglycaemia: did not occur
[3]; combination treatment with BI 1356 1, 5, and 10 mg and MET
  tolerability: well tolerated
[4]
  response in patients with TCF7L2 rs7903146 CT or TT risk genotype or CC wild genotype: clinically meaningful response
